Where “and” joins values, the source holds several entries; their conditions need not be identical. Identical values can stand only once. Screen size: about 94,000 compounds; about 4,000 (4.3%) were called active. This list was built around the results that the source calls inconclusive (neither active nor inactive); the mix of calls is not that of the screen. The call rests on the fitted dose curve; in most records, active means well fitted inhibition curve with a large enough effect; inconclusive means small, poorly fitted or top-dose-only effect; inactive means no such curve, though single readings can be large or run the other way. Where the call is inconclusive, the potency comes from a doubtful curve fit.
Assay: Cytotoxic Profiling in NIH 3T3 Cell Line of Diverse Libraries Using Quantitative High-Throughput Screening; further: nearly all actives have a fitted effect of over 55% in size
Conditions: NIH 3T3 viability, CellTiter-Glo ATP luminescence, 48-72 h; activity change, negative = cytotoxicity: at 96.7 µM (top of the series); series mostly up to 96.7 µM
Outline: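 Cytotoxicity is measured as loss of cellular ATP: NIH 3T3 cells (400/well) are exposed to compound for 48 or 72 hr at 37 °C, then CellTiter-Glo luminescence is imaged after 10 min at room temperature.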
On the % scale 0 is the no-effect control and ±100 the full control effect; potency means the concentration at half of the fitted maximal effect; tags describe the fitted curve by direction and shape.

Row | SMILES | activity change, negative = cytotoxicity | Potency | outcome
1 | CCn1nc(C)cc1C(=O)N1CCCN(Cc2ccc(F)cc2)C(C(C)C)C1 (configuration not stated) | inactive: -19.3% |  | 
2 | CC1=NS(=O)(=O)N(C)C=C1C(=O)OCc1nc(-c2ccc(Cl)cc2)no1 | inactive: -29.5% |  | 
3 | CN1CCCCCC(O)c2cc(C(=O)N3CCN(c4ccccc4F)CC3)ccc21 (configuration not stated) |  | inconclusive: 44.7 µM [inhibitor, partial curve, poor fit] | 
4 | CC(C)c1ccc(C(=O)N2CCC(Cc3nc(-c4ccc(F)cc4)no3)CC2)cc1 |  | inconclusive: 14.1 µM [inhibitor, partial curve, poor fit] | 
5 | COc1ccc(-c2nc(C3CN(C(=O)Nc4cccc(F)c4)C3)no2)cc1 | inactive: -7.62% |  | 
6 | Cc1ccc(-c2cccc(CN3CCCC3C(=O)NCc3ccccc3Cl)c2)cc1Cl (configuration not stated) |  | inconclusive: 44.7 µM [inhibitor, partial curve, poor fit] | 
7 | O=C(c1cc(-c2cccc(C(F)(F)F)c2)c2nncn2n1)N1CCN(c2ncccn2)CC1 |  | inconclusive: 50.1 µM [inhibitor, partial curve, poor fit] | 
8 | O=C(O)C1CCCN(c2cn[nH]c(=O)c2)C1 (configuration not stated) | inactive: 1.12% |  | 
9 | CC(=O)N1CCN(c2ccc3nnc(-c4cc(C(=O)N(C)C)ccn4)n3n2)CC1 |  | inconclusive: 100 µM [inhibitor, partial curve, poor fit] | 
10 | COc1cccc(-c2noc(CC3CCN(C(=O)c4ccc(C)cc4C)CC3)n2)c1 |  | inconclusive: 44.7 µM [inhibitor, partial curve, poor fit] | 
11 | O=C(NCc1ccccc1F)c1ccc2c(c1)CN(Cc1cccc(F)c1)CCO2 |  | inconclusive: 50.1 µM [inhibitor, partial curve, poor fit] | 
12 | CN(C)C[C@@H]1CN(C(=O)c2cccc(N3CCCC3=O)c2)C[C@@H]1CO | inactive: 3.88% |  | 
13 | CC1=C[C@@H](CNC(=O)c2cncnc2)[C@H](C(C)C)C[C@H]1Cc1nnc(-c2ccccc2F)o1 |  | inconclusive: 50.1 µM [inhibitor, partial curve, poor fit] | 
14 | O=C(NCc1ccccc1)C1CCCN(c2ccnc3ccnn23)C1 (configuration not stated) |  | inconclusive: 50.1 µM [inhibitor, partial curve, poor fit] | 
15 | CC(=O)N1CCCN(C(=O)C2CCN(c3nccc(Nc4ccc(C)cc4)n3)CC2)CC1 |  | inconclusive: 50.1 µM [inhibitor, partial curve, poor fit] | 
16 | O=C(NCC1CC1)c1cc2n(n1)CC(c1ccc3c(c1)OCO3)OC2 (configuration not stated) |  | inconclusive: 44.7 µM [inhibitor, partial curve, poor fit] | 
17 | CN(C)c1ccc(CN2CCC3(CC2)CC(=O)c2ccc(Cl)cc2O3)cc1 |  | inconclusive: 50.1 µM [inhibitor, partial curve, poor fit] | 
18 | Cc1csc(Nc2ccc3c(n2)CN(C)C(=O)CO3)n1 |  | active: 31.6 µM | 
19 | Cc1noc(C)c1-c1cc2cc(CO)oc2c(-c2ccc([S+](C)(=O)[O-])cc2)n1 |  | inconclusive: 25.1 µM [inhibitor, full curve, poor fit] | 

Row | SMILES | activity change, negative = cytotoxicity | Potency | outcome
20 | COc1ccc(C(=O)NC2CCN(c3cc(-c4ccc(Cl)cc4)[nH]n3)CC2)c(C)c1 |  | inconclusive: 44.7 µM [inhibitor, partial curve, poor fit] | 
21 | O=C(Nc1ccc(Cl)cc1)c1nc2c(o1)CCN(Cc1cccc(F)c1)CC2 |  | inconclusive: 35.5 µM [inhibitor, partial curve, poor fit] | 
22 | Fc1cc(F)cc(-c2ccc(CN3CC4CCC(C3)N4c3ccc(C(F)(F)F)cc3)cc2)c1 |  |  | inactive
23 | O=C(NCc1cccc(Cl)c1)c1nc2sccn2c1-c1cccnc1 |  | inconclusive: 44.7 µM [inhibitor, partial curve, poor fit] | 
24 | O=C1c2c(nc(COc3ccc4c(c3)OCO4)n2Cc2ccccc2)NCCN1Cc1ccccc1F |  | inconclusive: 35.5 µM [inhibitor, partial curve, poor fit] | 
25 | Cc1cccc(-c2noc([C@@H]3C[C@@H](O)CN3Cc3cccc(C#N)c3)n2)c1 |  | inconclusive: 100 µM [inhibitor, partial curve, poor fit] | 
26 | O=C(COc1ccccc1)N1CCC2(CC1)CC(N(Cc1ccccc1)C1CC1)CCO2 (configuration not stated) |  | inconclusive: 50.1 µM [inhibitor, partial curve, poor fit] | 
27 | CCOC(=O)[C@@H]1[C@@H](OC(N)=O)C(=O)N(C(C)C)C12CCN(S(=O)(=O)c1ccccc1)CC2 |  | inconclusive: 50.1 µM [inhibitor, partial curve, poor fit] | 
28 | CCN1C(=O)C2CC3(CCN(C(=O)NCc4ccccc4)CC3)CN2C1=O (configuration not stated) |  |  | inactive
29 | COCc1noc(CCNC(=O)c2cc(S(N)(=O)=O)ccc2F)n1 | inactive: -0.839% |  | 
30 | O=C(CC[C@@H]1CNC(=O)[C@@H]2C[C@H](NCc3ccccn3)CN12)NCc1ccc(F)cc1 |  | inconclusive: 56.2 µM [inhibitor, full curve, poor fit] | 
31 | COc1ccc(C2Cn3cnc(C(=O)N4CCC(C(=O)NCc5ccc(C)cc5)CC4)c3CO2)cc1 (configuration not stated) |  |  | inactive
32 | CCOc1cc(C(=O)NC2CCN(c3cc(-c4cccs4)[nH]n3)C2)cc(OCC)c1OCC (configuration not stated) |  | inconclusive: 11.2 µM [inhibitor, full curve, poor fit] | 
33 | Cc1ccc(-n2c(C3CCN(C(=O)Cc4cccc(C)c4)CC3)n[nH]c2=O)cc1 |  | inconclusive: 6.31 µM [inhibitor, full curve, poor fit] | 
34 | CCc1ccc(NC(=O)c2ccc3c(c2)N(CC)C2CCCCN2C3=O)cc1 (configuration not stated) |  | inconclusive: 15.8 µM [inhibitor, full curve, poor fit] | 
35 | CC(C)CCNC(=O)CC1Sc2ncccc2N(CC(C)C)C1=O (configuration not stated) | inactive: -2.23% |  | 
36 | C[S+](=O)([O-])c1cccc(-c2nnc3ccc(C(=O)NCCCc4ccccc4)cn23)c1 | inactive: -24.4% |  | 
37 | CC(C)NC(=O)c1cc(-c2ccc(C(F)(F)F)cc2)nc2c1cnn2C |  | inconclusive: 39.8 µM [inhibitor, partial curve, poor fit] | 
38 | CN(c1ccccc1)c1ccc2c(n1)CN(CC(=O)N1CCCC1)C(=O)CO2 |  | inconclusive: 63.1 µM [inhibitor, partial curve, poor fit] | 

Row | SMILES | activity change, negative = cytotoxicity | Potency | outcome
39 | CC(=O)Nc1cccc(-c2nc(N3CCOCC3)cc3c2CN(Cc2cnn(C)c2)C3=O)c1 |  | inconclusive: 56.2 µM [inhibitor, partial curve, poor fit] | 
40 | O=C(CC1CCCN(c2cnn(CC3CC3)c(=O)c2)C1)NCc1cc(F)ccc1F (configuration not stated) |  | inconclusive: 50.1 µM [inhibitor, single point] | 
41 | CC1=C[C@@H](CNS(=O)(=O)c2cccc(C#N)c2)[C@H](C(C)C)C[C@H]1CC(=O)N(C)Cc1cccnc1 |  | inconclusive: 39.8 µM [inhibitor, full curve] | 
42 | c1cnc2nc(-c3ccsc3)[nH]c2c1 |  | inconclusive: 35.5 µM [inhibitor, partial curve, poor fit] and inconclusive: 100 µM [inhibitor, partial curve, poor fit] | 
43 | CCc1ccccc1S(=O)(=O)N1CCC2(CC1)C(=O)N(CC)c1ccccc12 |  | inconclusive: 50.1 µM [inhibitor, partial curve, poor fit] | 
44 | Cc1ccc(C(=O)N2CCC(N3C(=O)C4(CCCCC4)C3c3ccncc3)CC2)s1 (configuration not stated) | inactive: -23% |  | 
45 | O=C(NCc1ccc(F)cc1)c1cn2cc(-c3ccccc3)sc2n1 |  | inconclusive: 100 µM [inhibitor, partial curve, poor fit] | 
46 | COc1ccccc1-c1[nH]nc2ncc(C(=O)N3C[C@@H](C)O[C@@H](C)C3)nc12 |  | inconclusive: 56.2 µM [inhibitor, partial curve, poor fit] | 
47 | Cc1ccccc1CC(=O)N1CCC2(CC1)NC(=O)N(c1cccc(F)c1)N2 |  | inconclusive: 28.2 µM [inhibitor, partial curve, poor fit] | 
48 | COc1ccccc1-c1ccc(C(=O)N2CCC(NC(=O)Cc3ccc(F)cc3)CC2)cc1 |  | inconclusive: 50.1 µM [inhibitor, partial curve, poor fit] and active: 44.7 µM | 
49 | O=C(c1ccccc1Cl)N1CCC2(C1)C(=O)N(CCc1ccccc1)c1ccccc12 (configuration not stated) |  | inconclusive: 44.7 µM [inhibitor, partial curve, poor fit] | 
50 | Cc1nn(-c2cccc(Br)c2)c(C)c1[C@@H]1C=C[C@@H](NC(=O)CC2(CC(=O)O)CCCC2)C1 |  | inconclusive: 89.1 µM [inhibitor, single point] | 
51 | O=C(NCC1CN(Cc2cccc(O)c2)CC12CN(c1ccccc1)C2)c1ccccc1 (configuration not stated) |  | active: 28.2 µM | 
52 | COc1ccc(-c2ccnc(N[C@H]3CO[C@H]4[C@@H]3OC[C@@H]4NS(=O)(=O)c3ccccc3C#N)n2)cc1 |  | inconclusive: 44.7 µM [inhibitor, partial curve] | 
53 | Cc1ccc([S+](=O)([O-])N2CCN(CCn3nc4n(c3=O)CCCC4)CC2)cc1 | inactive: 4.43% |  | 
54 | CCOC(=O)c1oc2ccc(S(=O)(=O)N3CCC(c4noc(C5CC5)n4)C3)cc2c1C (configuration not stated) |  | inconclusive: 44.7 µM [inhibitor, partial curve, poor fit] | 
55 | CC(C)CCNC(=O)CCC1CCCN(S(=O)(=O)c2ccc(F)cc2)C1 (configuration not stated) |  | inconclusive: 50.1 µM [inhibitor, partial curve, poor fit] | 
56 | O=C(C1CCC1)N1CCNc2cnc(Nc3ccccc3)nc2C1 |  | inconclusive: 79.4 µM [inhibitor, partial curve] | 
57 | COc1ccccc1CCC(=O)N1c2ccccc2CC1c1nc(C2CC2)no1 (configuration not stated) |  | inconclusive: 44.7 µM [inhibitor, partial curve, poor fit] | 
